Measurements as given in PubChem BioAssay AID1159554 (Broad Institute, 2015).
The whole screen tested about 94,000 compounds, of which about 2,100 (2.2%) were called active. This list was built around the results that the source calls inconclusive (neither active nor inactive); the mix of calls is not that of the screen. Cut-off read from the data, not from the text of the source: active = activity change below about -80%; inconclusive = no clear call, values can overlap the other calls; inactive = above that.

assay: P. falciparum Dd2 growth inhibitors, primary screen, SYBR Green fluorescence, single dose replicates (AID 1159554); details: 72 h, at 10 µM, hits give low values

Compound	activity change
CN(C)CC#Cc1ccc([C@H]2[C@@H](CO)N3CCCCN(C(=O)Cc4ccccn4)C[C@H]23)cc1	inactive: 7.34%
COC(=O)C[C@@H]1CC[C@H]2NC[C@@H](O)COC[C@@H]2O1	inactive: 3.68%
COc1ccc(OC(=O)N(C)C[C@H]2OCc3ccccc3-c3c(n(C)c4ccccc34)C(=O)N([C@H](C)CO)C[C@@H]2C)cc1	inconclusive: -80.3%
